Source: the supplement of paper PMC8728848
The other results are listed elsewhere or left out.

Legend:
Experiment in all cases: glycan array binding signal (z-score within array); higher = stronger binding
Conditions in all cases: glycan notation: IUPAC condensed, linker removed
[1] = target: Fuc(a1-3)GlcNAc
Outline: (§1)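 Arrays were curated from the Consortium for Functional Glycomics database, 3228 in total, and kept only where the protein sequence was available. Binding is expressed as a within-array Z-score. This score was averaged across arrays of the same protein sequence at different concentrations or buffers and across linkers, and negative values can be read as non-binding.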

[2] = target: Fuc(a1-3)[Gal(b1-4)]Glc6S
Outline: as §1

[3] = target: Fuc(a1-3)[Gal(b1-4)]GlcNAc
Outline: as §1

[4] = target: Fuc(a1-3)[Gal(b1-4)]GlcNAc(b1-2)Man
Outline: as §1

[5] = target: Fuc(a1-3)[Gal(b1-4)]GlcNAc(b1-2)Man(a1-3)[Fuc(a1-3)[Gal(b1-4)]GlcNAc(b1-2)Man(a1-6)]Man(b1-4)GlcNAc(b1-4)GlcNAc
Outline: as §1

[6] = target: Fuc(a1-3)[Gal(b1-4)]GlcNAc(b1-2)Man(a1-3)[Fuc(a1-3)[Gal(b1-4)]GlcNAc(b1-2)Man(a1-6)]Man(b1-4)GlcNAc(b1-4)[Fuc(a1-6)]GlcNAc
Outline: as §1

[7] = target: Fuc(a1-3)[Gal(b1-4)]GlcNAc(b1-3)Gal(b1-3)[Fuc(a1-4)]GlcNAc
Outline: as §1

[8] = target: Fuc(a1-3)[Gal(b1-4)]GlcNAc(b1-3)Gal(b1-4)[Fuc(a1-3)]GlcNAc
Outline: as §1

[9] = target: Fuc(a1-3)[Gal(b1-4)]GlcNAc(b1-3)Gal(b1-4)[Fuc(a1-3)]GlcNAc(b1-3)Gal(b1-4)[Fuc(a1-3)]GlcNAc
Outline: as §1

[10] = target: Fuc(a1-3)[Gal(b1-4)]GlcNAc(b1-3)GalNAc
Outline: as §1

[11] = target: Fuc(a1-3)[Gal(b1-4)]GlcNAc(b1-6)GalNAc
Outline: as §1

[12] = target: Fuc(a1-3)[Gal(b1-4)]GlcNAc(b1-6)[Gal(b1-3)GlcNAc(b1-3)]Gal(b1-4)Glc
Outline: as §1

[13] = target: Fuc(a1-3)[Gal(b1-4)]GlcNAc6S
Outline: as §1

[14] = target: Fuc(a1-3)[Gal3S(b1-4)]Glc
Outline: as §1

[15] = target: Fuc(a1-3)[Gal3S(b1-4)]GlcNAc
Outline: as §1

[16] = target: Fuc(a1-3)[Gal3S(b1-4)]GlcNAc6S
Outline: as §1

[17] = target: Fuc(a1-3)[GalNAc(b1-4)]GlcNAc
Outline: as §1

[18] = target: Fuc(a1-3)[GalNAc(b1-4)]GlcNAc6S
Outline: as §1

[19] = target: Fuc(a1-4)GlcNAc
Outline: as §1

[20] = target: Fuc(b1-3)GlcNAc
Outline: as §1

[21] = target: Gal(a1-2)Gal
Outline: as §1

[22] = target: Gal(a1-3)Gal
Outline: as §1

[23] = target: Gal(a1-3)Gal(b1-3)GlcNAc
Outline: as §1

[24] = target: Gal(a1-3)Gal(b1-3)GlcNAc(b1-2)Man
Outline: as §1

[25] = target: Gal(a1-3)Gal(b1-3)GlcNAc(b1-2)Man(a1-3)[Gal(a1-3)Gal(b1-3)GlcNAc(b1-2)Man(a1-6)]Man(b1-4)GlcNAc(b1-4)GlcNAc
Outline: as §1

[26] = target: Gal(a1-3)Gal(b1-3)GlcNAc(b1-3)GalNAc
Outline: as §1

[27] = target: Gal(a1-3)Gal(b1-3)GlcNAc(b1-6)GalNAc
Outline: as §1

[28] = target: Gal(a1-3)Gal(b1-3)[Fuc(a1-4)]GlcNAc(b1-2)Man(a1-3)[Gal(a1-3)Gal(b1-3)[Fuc(a1-4)]GlcNAc(b1-2)Man(a1-6)]Man(b1-4)GlcNAc(b1-4)GlcNAc
Outline: as §1

[29] = target: Gal(a1-3)Gal(b1-4)Glc
Outline: as §1

[30] = target: Gal(a1-3)Gal(b1-4)GlcNAc
Outline: as §1

[31] = target: Gal(a1-3)Gal(b1-4)GlcNAc(b1-2)Man
Outline: as §1

[32] = target: Gal(a1-3)Gal(b1-4)GlcNAc(b1-2)Man(a1-3)[Gal(a1-3)Gal(b1-4)GlcNAc(b1-2)Man(a1-6)]Man(b1-4)GlcNAc(b1-4)GlcNAc
Outline: as §1

[33] = target: Gal(a1-3)Gal(b1-4)GlcNAc(b1-3)GalNAc
Outline: as §1

[34] = target: Gal(a1-3)Gal(b1-4)GlcNAc(b1-6)GalNAc
Outline: as §1

[35] = target: Gal(a1-3)Gal(b1-4)[Fuc(a1-3)]GlcNAc
Outline: as §1

[36] = target: Gal(a1-3)Gal(b1-4)[Fuc(a1-3)]GlcNAc(b1-2)Man(a1-3)[Gal(a1-3)Gal(b1-4)[Fuc(a1-3)]GlcNAc(b1-2)Man(a1-6)]Man(b1-4)GlcNAc(b1-4)GlcNAc
Outline: as §1

[37] = target: Gal(a1-3)GalNAc
Outline: as §1

[38] = target: Gal(a1-3)[Gal(a1-4)]Gal(b1-4)GlcNAc
Outline: as §1

[39] = target: Gal(a1-4)Gal(b1-3)GlcNAc(b1-2)Man(a1-3)[Gal(a1-4)Gal(b1-3)GlcNAc(b1-2)Man(a1-6)]Man(b1-4)GlcNAc(b1-4)GlcNAc
Outline: as §1

[40] = target: Gal(a1-4)Gal(b1-4)Glc
Outline: as §1

[41] = target: Gal(a1-4)Gal(b1-4)GlcNAc
Outline: as §1

[42] = target: Gal(a1-4)Gal(b1-4)GlcNAc(b1-2)Man(a1-3)[Gal(a1-4)Gal(b1-4)GlcNAc(b1-2)Man(a1-6)]Man(b1-4)GlcNAc(b1-4)GlcNAc
Outline: as §1

[43] = target: Gal(a1-4)Gal(b1-4)GlcNAc(b1-3)Gal(b1-4)Glc
Outline: as §1

[44] = target: Gal(a1-4)GlcNAc
Outline: as §1

[45] = target: Gal(a1-6)Glc
Outline: as §1

B1: PX14375C-bth-509-28-509 (Bacteroides thetaiotaomicron) (protein)
chain: RSPQGQFTEDDNPNALVNGKIYNVYTMMRSFDITAGTPAIAIHYLRSEDSEKGSIPSDGSDVAEMYDDFLYTPTNGLLGSYWGKNYAIIYQCNDILDAIAEKETAGQTETEDIINKGEASFFRAYCYFNLVRAFGEVPLVTYKINDASEANIPKTTADKIYEQIDTDLKTAEESLPETWSTEYTGRLTWGAARSLHARTYMMRSDWDNMYKASTDVINKGLYNLKTPYNEIFTDDGENSGGSIFELQCTATAALPQSDVIGSQFCEVQGVRGAGQWDLGWGWHMATQLMADAYETGDPRKNATLLYFRKTDDEPITPENTNEPYGESPISPAMGAYFNKKAYTDPALRKEYTNKGFWVNIRLIRYSDVVLMAAEAANEKNIPGEAVDYLEMVRARARGTNTNILPKITTNDQGELREAIRHERRVELGLEPDRFYDLVRWGIASEVLHAAGKVNYQDKNALLPLPQSEIDKSKGVLVQNPDY
- glycan array binding signal (z-score) [1]: -0.139
- glycan array binding signal (z-score) [2]: -0.065
- glycan array binding signal (z-score) [3]: -0.155
- glycan array binding signal (z-score) [4]: -0.131
- glycan array binding signal (z-score) [5]: 1.05
- glycan array binding signal (z-score) [6]: 0.724
- glycan array binding signal (z-score) [7]: -0.158
- glycan array binding signal (z-score) [8]: -0.101
- glycan array binding signal (z-score) [9]: -0.164
- glycan array binding signal (z-score) [10]: -0.155
- glycan array binding signal (z-score) [11]: 0.097
- glycan array binding signal (z-score) [12]: -0.515
- glycan array binding signal (z-score) [13]: -0.275
- glycan array binding signal (z-score) [14]: -0.391
- glycan array binding signal (z-score) [15]: -0.186
- glycan array binding signal (z-score) [16]: -0.332
- glycan array binding signal (z-score) [17]: 0.429
- glycan array binding signal (z-score) [18]: -0.401
- glycan array binding signal (z-score) [19]: -0.417
- glycan array binding signal (z-score) [20]: -0.313
- glycan array binding signal (z-score) [21]: 0.105
- glycan array binding signal (z-score) [22]: -0.148
- glycan array binding signal (z-score) [23]: -0.256
- glycan array binding signal (z-score) [24]: -0.429
- glycan array binding signal (z-score) [25]: 0.935
- glycan array binding signal (z-score) [26]: -0.344
- glycan array binding signal (z-score) [27]: -0.364
- glycan array binding signal (z-score) [28]: -0.273
- glycan array binding signal (z-score) [29]: -0.196
- glycan array binding signal (z-score) [30]: 1.17
- glycan array binding signal (z-score) [31]: -0.161
- glycan array binding signal (z-score) [32]: 0.762
- glycan array binding signal (z-score) [33]: -0.308
- glycan array binding signal (z-score) [34]: 0.233
- glycan array binding signal (z-score) [35]: -0.395
- glycan array binding signal (z-score) [36]: 1.41
- glycan array binding signal (z-score) [37]: -0.254
- glycan array binding signal (z-score) [38]: 2.55
- glycan array binding signal (z-score) [39]: 0.917
- glycan array binding signal (z-score) [40]: 0.081
- glycan array binding signal (z-score) [41]: 0.016
- glycan array binding signal (z-score) [42]: -0.374
- glycan array binding signal (z-score) [43]: -0.341
- glycan array binding signal (z-score) [44]: -0.193
- glycan array binding signal (z-score) [45]: -0.3
